Measured values reported in the supplement of paper PMC10338343.
± gives the standard deviation. The list shows a part of the results, in another mix than the full data.

Tested on: MIWI (PIWIL1) piRISC loaded with piRNA #1 (30 nt)
Assay: pre-steady-state target cleavage rate (min^-1); MIWI and MILI are mouse PIWI proteins and EfPiwi is from a freshwater sponge; tags in brackets are library labels; higher = faster piRNA-guided slicing of the target
Settings: guide: piRNA #1 5'p-UGAGGUAGUAGGUUGUAUAGUAUCCAGAGG; auxiliary factor: 500 nM mouse GTSF1
Outline: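 The pre-steady-state cleavage rate was derived from a burst-and-steady-state fit of Cleave-'n-Seq data. For these assays, 1 nM active affinity-purified piRISC loaded with a single synthetic guide was mixed with […] a transcribed, DNA-blocked target RNA library in HEPES–potassium acetate buffer at 33 °C, with or without 500 nM GTSF1 partner protein, for 0–8 or 0–960 min. Sequencing counts of uncleaved targets were normalised to depth and to weakly complementary targets, and k3 was capped at 0.0001 min^-1 after three trials were pooled.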
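Note: 1 nM active piRISC with 0.1 nM target library at 33 °C single turnover.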

Sequence	pre-steady-state target cleavage rate
GCUCUGGAUACUAUACAACCUACUAACUCA	1.3 ± 0.085
GGUCUGGAUAGUAUACAUCCUACUACCUCA	0.741 ± 0.083
GGAGUGGAUACUAUCAACCUACUACCUCA	1.58 ± 0.11
GCUCUGCAUACUAUACAACCUUCUACCUCA	0.65 ± 0.031
GGAGAGGAUACAAUACAACCUACUACCUGA	0.294 ± 0.029
GCUCUGGAUACUAUACAACCUACACCUCA	0.00765 ± 0.0038
GGAGACCAUACAAUACUACCUACUACCUCA	0.146 ± 0.035
GCUCUGGAUACUAUACGACCUACUACCUCA	1.48 ± 0.083
GGAGAGGAUACUAUACAACGUUCUACCUCA	0.0791 ± 0.0075
GGAGACGAUACUUUACAACCUACAACCUCA	0.239 ± 0.028
GGAGACGAUACUAUACAUCCUACUACCUGA	0.738 ± 0.06
CCUCUGGAUAGUAUACAACCUACUACCUCA	0.2 ± 0.039
GGAGUCGAUACUAUACAACGUACUACCUCA	0.612 ± 0.045
GGUCUGCAUACAAUACAACCUACUACCUCA	1.45 ± 0.11
GGAGACCUAUCUAUUGAACCUACUACCUCA	0.00409 ± 0.002
GGACUGGAUUCUAUACAACCUAGUACCUCA	0.496 ± 0.074
GGAGACCUAACUAUACAACCUACUACAUCA	0.847 ± 0.057
GGACUGGAAAGUAUACAACCUACUACCUCA	0.782 ± 0.12
GGAGACGAUACUAUACAACCUACUACUCUCA	1.51 ± 0.095
GGACUGGUUACUAUACAACCUACUACGUCA	0.485 ± 0.066

Sequence	pre-steady-state target cleavage rate
GGAGAGGAGUACUAUACAACCUACUACCUCA	0.209 ± 0.032
CCUCUCGAUACUAUACAACCUUCUACCUCA	0.676 ± 0.035
GGAGACCAUACAUACAACCUACUACCUCA	0.36 ± 0.056
CCUCUGGAUACUAUACAACCUACACCUCA	0.0138 ± 0.004
GGAGACCUAUGAUAUCAAGCUACUUCCUCA	< 0.0001
GGAGACCUAUCUAUACAACCUACUUGCUCA	0.211 ± 0.027
CGAGUGGAUACUAUACAACCUACUACCUCA	1.84 ± 0.09
GGAGAGGAUACUAUACAACCUAGCUACCUCA	0.126 ± 0.013
CCUCUCGAUACUAUACAACCUACUUCCUCA	1 ± 0.057
GGACUGGAUUGAAUACAACCUACUACCUCA	0.0364 ± 0.0079
GGAGAGGAUUCUAUACAUCCUACUACCUCA	1.31 ± 0.069
GGAGACCUAACUAUACAACCUUGUACCUCA	0.00406 ± 0.0034
GCUCUGGAUACUAUACAACCUACUACGUCA	1.23 ± 0.072
GGAGACCUAACAAUACAACCUAGUACCUCA	0.0122 ± 0.0065
GGACUGGAUACUAUACAACCUACUAACUCA	0.0689 ± 0.013
GGAGACCAUACUAUACAACCUAGAUCCUCA	0.113 ± 0.021
GGAGACCAUACUAUUCAACCUACUUCCUCA	0.248 ± 0.034
GGAGACCUUCCUAUACAACCUACUACCUCA	1.44 ± 0.2
GGAGACCUAUGUAUACCAACCUACUACCUCA	0.0026 ± 0.0026
GGAGACCUAUGAUAUCAACCUACUACCAGA [g4:g15:cont:t1A]	< 0.0001
